Experimental data from the RNAGym collection of RNA variant scans (doi:10.7554/elife.90254).
Read counts are not given, so values of variants with three or more changes are uncertain.

B1: LINE1-full (parent)
chain: UACGUAGGUGGUUUUCCCCUGAUAGUGCUAAGGGGGCCUGGAAGUUUGGACUGGGCAGAGCUCAACACAGCGUGGCAAAGUGGCUGUGGCUAGACUGCCUCUCUGGAUUCCUCGUCACUCAGCAGGGCAUCUCUGAGAGAAAUGCC

Variants of: B1
Assay: self-cleavage, relative activity (ratio to wild type); higher = more cleavage; in vitro, sequencing; the parent is a self-cleaving ribozyme
For A77U U91C U100C, the self-cleavage was 0.88.
Work on U81A U112G A138G yielded a self-cleavage of 2.34.
With A77G U85C U109C the self-cleavage was 0.
U81C A138G A141G gave a self-cleavage of 1.04.
Variant A79G U119C A138G has a self-cleavage of 0.
Work on A77U A94U A121U A136G yielded a self-cleavage of 0.38.
Work on U85C U112C G114A U119C yielded a self-cleavage of 0.11.
Work on G82A U96C U104A yielded a self-cleavage of 0.09.
U85C U100C U115A showed a self-cleavage of 0.15.
U73C C118U A136G showed a self-cleavage of 2.2.
G82A U102A A107G gave a self-cleavage of 1.83.
Variant A77G U102C U132C A140G has a self-cleavage of 1.15.
In the case of A77U U81C U85A, the self-cleavage is reported as 0.33.
With U85A C95U A121G the self-cleavage was 0.13.
In the case of A78G G122U G125U U143C, the self-cleavage is reported as 1.42.
For A79U U87C A141G, the self-cleavage was 0.18.
Variant G82A C101A A141G has a self-cleavage of 2.3.
For A77G U109C A140G, the self-cleavage was 1.06.
For G86U U112C A142G, the self-cleavage was 0.03.
G75A C110U A138U gave a self-cleavage of 1.13.
For U73C A129G U143C, the self-cleavage was 2.3.
A79G U104A A107G gave a self-cleavage of 1.02.
In the case of C76A U104C A138G, the self-cleavage is reported as 1.5.
U81G U96A U104A A107G U109A gave a self-cleavage of 0.
Work on A77G A78G G82A A142G yielded a self-cleavage of 2.84.
Variant A77G U85A U104A A121G has a self-cleavage of 0.06.
In the case of G74A A121G A140G, the self-cleavage is reported as 0.71.
G74A U112C A129G A138G showed a self-cleavage of 2.76.
Variant A77U U104A A141U has a self-cleavage of 1.01.
Work on U85C G127U A138G yielded a self-cleavage of 0.03.
For U81A U102C U112C, the self-cleavage was 1.
In the case of A77G A78G U81A U96C U119C G122U, the self-cleavage is reported as 0.
Variant U85C U119C U132A has a self-cleavage of 0.31.
Work on U85A A92G U119C A124G yielded a self-cleavage of 0.
A77U G93A U130A gave a self-cleavage of 0.04.
With A79G U81A U102A A107U the self-cleavage was 2.7.
With A79C U104A A129G the self-cleavage was 0.
With U87A C95U A124G the self-cleavage was 0.04.
U73G A136U A138G showed a self-cleavage of 1.72.
A77G U102C A129G showed a self-cleavage of 1.53.
With A78G A94C U108A U130C the self-cleavage was 0.
Variant A78G U81A U104A has a self-cleavage of 0.33.
Work on G74A A77G U91A A107G U134A yielded a self-cleavage of 0.45.
Variant A79G C90A A121U has a self-cleavage of 0.03.
Variant U85C U87C U119A has a self-cleavage of 0.
U85A U108C C123A gave a self-cleavage of 0.04.
In the case of A78U U96G U134C, the self-cleavage is reported as 0.23.
Work on A79C U100C U119A A124G A142G yielded a self-cleavage of 2.51.
In the case of U81A G89C U112C, the self-cleavage is reported as 0.1.
Variant U73C C111U U130C has a self-cleavage of 1.05.
In the case of A77G U87A A94G A129U, the self-cleavage is reported as 0.26.
With A77U U96C U112G the self-cleavage was 0.
In the case of G86A U91A U109C A136G, the self-cleavage is reported as 0.07.
U85C G125A A129U showed a self-cleavage of 0.15.
U73C U87C A140G gave a self-cleavage of 0.
For U85A C103U U143C, the self-cleavage was 0.05.
U85A U112A U132C gave a self-cleavage of 0.03.
With A77G G89A U104C the self-cleavage was 0.36.
In the case of A79G U87C U143C, the self-cleavage is reported as 0.13.
A78U A124U U130C showed a self-cleavage of 2.99.
In the case of A79G C95A G97A U100C U109A, the self-cleavage is reported as 0.04.
U81C U104C C110A A138G showed a self-cleavage of 1.84.
A77G G89A U134G A142G gave a self-cleavage of 0.04.
Variant G74A A79C G125C U143C has a self-cleavage of 1.58.
In the case of A79G U104A G127A A141U, the self-cleavage is reported as 0.81.
For U85A A92G U109C, the self-cleavage was 0.18.
U85C A124G A140U showed a self-cleavage of 0.16.
A79G U91A A117C A141U showed a self-cleavage of 0.84.
A77G G97U G144A gave a self-cleavage of 0.13.
With U81A G82A U85C A138G A142G C146U the self-cleavage was 0.72.
Work on U85A U91A A107G C111U yielded a self-cleavage of 0.1.
U81A U102A A124G A140G showed a self-cleavage of 1.8.
For A78G U96C C123U U132C A138G U143A, the self-cleavage was 0.11.
In the case of A77U U85C U115C, the self-cleavage is reported as 0.15.
For U85C U112A A136G, the self-cleavage was 0.5.
In the case of A79U U109C U115A A141G, the self-cleavage is reported as 2.18.
For U85C U112C C120U, the self-cleavage was 0.25.
With U85C A92U C116A the self-cleavage was 0.09.
For C76A A77G U96C, the self-cleavage was 0.25.
C84U U102A U108C A129U gave a self-cleavage of 0.16.
A78G C99U A136G showed a self-cleavage of 1.34.
For A77C U85C A124G G125U, the self-cleavage was 0.
Work on U81A U85C U115C yielded a self-cleavage of 0.39.
With G82A U130C A138U the self-cleavage was 2.26.
For U73C G89U U96G U115G, the self-cleavage was 0.
In the case of U85C U87G A129G, the self-cleavage is reported as 0.
Work on U87A U91C U115C yielded a self-cleavage of 0.
With U87A U91C U115A the self-cleavage was 0.05.
U81C U102C U108A A121G showed a self-cleavage of 0.
G80U U100C A117G showed a self-cleavage of 0.57.
In the case of U73G C123A U143G, the self-cleavage is reported as 1.58.
In the case of A79G U96C A117G, the self-cleavage is reported as 0.
A79C U100C U112C showed a self-cleavage of 0.84.
A77U U102A A136G showed a self-cleavage of 1.49.
Variant A79G U85A U91C U119A has a self-cleavage of 0.08.
Work on U81A U85C U87C A141G A142G yielded a self-cleavage of 0.26.
A78G U91C A129G gave a self-cleavage of 0.24.
Variant A77G A117G G125A has a self-cleavage of 2.09.
Work on U81A A107G U143A yielded a self-cleavage of 1.92.
With A77G U108C U112A the self-cleavage was 2.04.
For U81A A107G U112C, the self-cleavage was 2.17.
Variant A77G G122U U130A has a self-cleavage of 2.08.
In the case of U73G A77G U112A U115C, the self-cleavage is reported as 1.23.
U81A G89A U104A U112C showed a self-cleavage of 0.03.
Variant U85G U115A U119A A140G has a self-cleavage of 0.27.
Variant A79G U104A A142U has a self-cleavage of 0.67.
U81C U132A A136G showed a self-cleavage of 2.47.
With U73C U100A U109C the self-cleavage was 0.37.
For U81G U85C A142G, the self-cleavage was 0.41.
In the case of G74A U119C A136G, the self-cleavage is reported as 1.07.
A77G U85C U109A G125A A138G showed a self-cleavage of 0.19.
U81C U104A U130C gave a self-cleavage of 1.6.
In the case of A77G U112A U143C, the self-cleavage is reported as 2.86.
Work on A77G A94U U102C A138G A141G yielded a self-cleavage of 1.42.
In the case of U73C A136U A141G, the self-cleavage is reported as 2.03.
In the case of U73C U87C A129U C131U, the self-cleavage is reported as 0.21.
For G75A U96C A129U A141G, the self-cleavage was 0.08.
With G82A U104A C120A A121G the self-cleavage was 1.9.
A78G G88C A142G gave a self-cleavage of 0.13.
A79U A129G U132C showed a self-cleavage of 1.59.
Work on U81A A117G U132C C133A yielded a self-cleavage of 1.08.
Work on U85C U115A A117U A142G yielded a self-cleavage of 0.12.
For A77G A94U C111U A140G, the self-cleavage was 0.53.
In the case of A77U A78G A124U, the self-cleavage is reported as 0.8.
For U85C U100C C131G, the self-cleavage was 0.
Work on A77G A94G A107G G125U A140U yielded a self-cleavage of 0.
C84U A129G A138G showed a self-cleavage of 0.
For U87A A94G U112C A138G, the self-cleavage was 0.12.
A78G G82A U112C U143C gave a self-cleavage of 1.32.
With U81G A94G A141G the self-cleavage was 0.12.
In the case of A78G A79G A117U, the self-cleavage is reported as 0.61.
In the case of C84A U102C G114A, the self-cleavage is reported as 0.09.
U81C A121G A141G showed a self-cleavage of 2.66.
Work on G82A G93A G144A yielded a self-cleavage of 0.05.
With U87A A107U G137A the self-cleavage was 0.08.
Variant A79G U104C C116U has a self-cleavage of 1.42.
With A79G U96A U132C the self-cleavage was 0.04.
With C76U U104C C113U the self-cleavage was 1.7.
Variant U85A U100C A140G has a self-cleavage of 0.12.
In the case of U73C U104C U112A U132A, the self-cleavage is reported as 1.53.
A78G C113A A117G A138U gave a self-cleavage of 1.24.
For G75A G114U C120U, the self-cleavage was 0.41.
Variant A77G U87A A138G has a self-cleavage of 0.19.
U81C U91C U119C showed a self-cleavage of 1.53.
Work on G80A U100A U102A U104G yielded a self-cleavage of 1.18.
With G74A U87C U115C A142C the self-cleavage was 0.2.
With A78U U100C A138G the self-cleavage was 2.87.
Work on G75A A77C U104A U132A yielded a self-cleavage of 1.09.
For U87A A140G A142G, the self-cleavage was 0.07.
A79G U85C U100C gave a self-cleavage of 0.
Variant C84U U102C G125U has a self-cleavage of 0.13.
Variant U85A U115A U119C G125U has a self-cleavage of 0.08.
With U73C C113A U132C the self-cleavage was 1.61.
A79G U102C U119C showed a self-cleavage of 0.4.
U81A U102C U112C U115A A121G showed a self-cleavage of 0.
For G86A U104C A117G, the self-cleavage was 0.15.
With C76U A77G U132A the self-cleavage was 2.13.
With U73C U104A A117G the self-cleavage was 0.
Work on A78G U109C U112A yielded a self-cleavage of 0.57.
Work on A77G C116A A142G yielded a self-cleavage of 1.17.
For U81A U87G U100C, the self-cleavage was 0.65.
Variant A79G U109A U132C has a self-cleavage of 1.28.
Variant A77U A94C U100C U102C has a self-cleavage of 0.12.
In the case of U81A U85A U119G, the self-cleavage is reported as 0.08.
G75A U109C U143A gave a self-cleavage of 0.63.
Work on A78G C118U U130C yielded a self-cleavage of 0.61.
With U81A U96C U112A the self-cleavage was 0.12.
